Here are results for 12 molecules from article PMC4366199, “Arfaptin-1 Negatively Regulates Arl1-Mediated Retrograde Transport” (PLoS ONE, 2015).

The chains behind the UniProt entries cited, without tags or fusion partners.
UniProt Q13439: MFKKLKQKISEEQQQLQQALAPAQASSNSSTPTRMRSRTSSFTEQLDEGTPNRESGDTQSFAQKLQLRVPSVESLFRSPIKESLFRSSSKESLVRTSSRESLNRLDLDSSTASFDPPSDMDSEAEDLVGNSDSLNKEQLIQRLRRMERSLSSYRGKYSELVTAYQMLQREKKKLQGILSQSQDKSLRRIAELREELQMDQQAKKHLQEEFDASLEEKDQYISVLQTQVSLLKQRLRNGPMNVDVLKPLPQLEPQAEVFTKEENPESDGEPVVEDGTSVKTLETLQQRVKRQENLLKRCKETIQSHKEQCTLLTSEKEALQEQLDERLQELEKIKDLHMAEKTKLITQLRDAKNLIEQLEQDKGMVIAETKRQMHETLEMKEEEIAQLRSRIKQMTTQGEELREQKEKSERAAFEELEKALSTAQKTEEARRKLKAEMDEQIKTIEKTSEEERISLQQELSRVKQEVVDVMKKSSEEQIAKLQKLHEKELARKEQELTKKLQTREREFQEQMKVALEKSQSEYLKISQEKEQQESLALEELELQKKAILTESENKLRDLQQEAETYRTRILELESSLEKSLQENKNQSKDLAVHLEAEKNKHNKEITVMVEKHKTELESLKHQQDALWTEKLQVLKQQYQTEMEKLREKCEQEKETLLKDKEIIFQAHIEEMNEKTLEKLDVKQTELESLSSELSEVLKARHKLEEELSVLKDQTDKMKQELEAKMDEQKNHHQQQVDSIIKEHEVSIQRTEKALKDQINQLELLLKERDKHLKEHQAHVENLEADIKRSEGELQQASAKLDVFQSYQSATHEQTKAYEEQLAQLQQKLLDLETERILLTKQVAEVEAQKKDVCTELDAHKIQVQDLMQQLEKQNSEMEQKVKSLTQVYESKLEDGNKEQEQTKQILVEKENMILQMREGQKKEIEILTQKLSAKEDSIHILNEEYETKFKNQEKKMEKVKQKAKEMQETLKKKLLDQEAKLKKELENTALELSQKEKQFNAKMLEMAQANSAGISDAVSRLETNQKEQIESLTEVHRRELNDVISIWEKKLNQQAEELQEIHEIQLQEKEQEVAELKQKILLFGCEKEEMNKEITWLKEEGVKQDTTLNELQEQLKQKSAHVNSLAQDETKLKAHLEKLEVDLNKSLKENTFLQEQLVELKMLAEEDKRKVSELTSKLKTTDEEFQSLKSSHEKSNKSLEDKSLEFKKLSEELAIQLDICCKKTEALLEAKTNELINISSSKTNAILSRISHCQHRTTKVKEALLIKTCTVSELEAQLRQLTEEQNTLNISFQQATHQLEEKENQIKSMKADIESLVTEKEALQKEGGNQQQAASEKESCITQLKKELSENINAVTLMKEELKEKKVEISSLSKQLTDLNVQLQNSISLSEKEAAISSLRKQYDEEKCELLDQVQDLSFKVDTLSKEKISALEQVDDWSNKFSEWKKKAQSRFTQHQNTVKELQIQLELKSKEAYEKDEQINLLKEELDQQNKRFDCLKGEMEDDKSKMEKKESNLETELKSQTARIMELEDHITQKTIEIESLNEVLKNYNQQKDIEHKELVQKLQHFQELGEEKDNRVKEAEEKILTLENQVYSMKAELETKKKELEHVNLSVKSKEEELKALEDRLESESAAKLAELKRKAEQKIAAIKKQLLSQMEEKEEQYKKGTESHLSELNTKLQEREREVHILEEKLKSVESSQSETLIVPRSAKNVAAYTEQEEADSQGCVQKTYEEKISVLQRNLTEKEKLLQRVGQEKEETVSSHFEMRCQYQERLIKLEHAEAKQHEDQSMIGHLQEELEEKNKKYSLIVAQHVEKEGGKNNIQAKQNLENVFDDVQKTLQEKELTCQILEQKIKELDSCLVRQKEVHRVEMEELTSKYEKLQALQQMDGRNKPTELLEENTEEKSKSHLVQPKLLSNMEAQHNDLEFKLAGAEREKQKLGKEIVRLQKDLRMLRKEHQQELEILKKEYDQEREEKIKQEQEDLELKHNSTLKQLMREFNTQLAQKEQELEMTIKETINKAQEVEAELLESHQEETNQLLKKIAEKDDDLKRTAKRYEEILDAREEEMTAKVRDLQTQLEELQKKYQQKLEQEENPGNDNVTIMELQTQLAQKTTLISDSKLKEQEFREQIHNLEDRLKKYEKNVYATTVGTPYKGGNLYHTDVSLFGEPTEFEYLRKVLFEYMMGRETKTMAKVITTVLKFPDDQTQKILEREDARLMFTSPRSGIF

T1: GST-Arl1QL (Arf-like protein 1, Gln71 to Leu, putative active GTP-bound form) (human) (UniProt P40616)
T1 sequence: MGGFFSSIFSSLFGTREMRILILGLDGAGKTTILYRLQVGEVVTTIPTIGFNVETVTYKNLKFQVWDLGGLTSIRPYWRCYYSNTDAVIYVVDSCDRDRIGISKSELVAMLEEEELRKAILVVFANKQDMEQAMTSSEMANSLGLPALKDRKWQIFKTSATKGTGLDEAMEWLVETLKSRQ

T2: LexA DNA-binding domain fusion of Arl1QL (human) (UniProt P40616)
T2 sequence: T1 sequence

B1: arfaptin-1b-myc (protein, UniProt P53367 1-373)
chain: MAQESPKNSAAEIPVTSNGEVDDSREHSFNRDLKHSLPSGLGLSETQITSHGFDNTKEGVIEAGAFQGSPAPPLPSVMSPSRVAASRLAQQGSDLIVPAGGQRTQTKSGPVILADEIKNPAMEKLELVRKWSLNTYKCTRQIISEKLGRGSRTVDLELEAQIDILRDNKKKYENILKLAQTLSTQLFQMVHTQRQLGDAFADLSLKSLELHEEFGYNADTQKLLAKNGETLLGAINFFIASVNTLVNKTIEDTLMTVKQYESARIEYDAYRTDLEELNLGPRDANTLPKIEQSQHLFQAHKEKYDKMRNDVSVKLKFLEENKVKVLHNQLVLFHNAIAAYFAGNQKQLEQTLKQFHIKLKTPGVDAPSWLEEQ
B2: arfaptin-1b-F317A-myc (protein, UniProt P53367 1-373)
chain: B1 chain with F317A
B3: golgin-97, endogenous (protein, UniProt Q92805 1-767)
chain: MFAKLKKKIAEETAVAQRPGGATRIPRSVSKESVASMGADSGDDFASDGSSSREDLSSQLLRRNEQIRKLEARLSDYAEQVRNLQKIKEKLEIALEKHQDSSMRKFQEQNETFQANRAKMAEGLALALARKDQEWSEKMDQLEKEKNILTAQLQEMKNQSMNLFQRRDEMDELEGFQQQELSKIKHMLLKKEESLGKMEQELEARTRELSRTQEELMNSNQMSSDLSQKLEELQRHYSTLEEQRDHVIASKTGAESKITALEQKEQELQALIQQLSIDLQKVTAETQEKEDVITHLQEKVASLEKRLEQNLSGEEHLQELLKEKTLAEQNLEDTRQQLLAARSSQAKAINTLETRVRELEQTLQASEEQLQQSKGIVAAQETQIQELAAANQESSHVQQQALALEQQFLERTQALEAQIVALERTRAADQTTAEQGMRQLEQENAALKECRNEYERSLQNHQFELKKLKEEWSQREIVSVAMAQALEEVRKQREEFQQQAANLTAIIDEKEQNLREKTEVLLQKEQEILQLERGHNSALLQIHQLQAELEALRTLKAEEAAVVAEQEDLLRLRGPLQAEALSVNESHVTSRAMQDPVFQLPTAGRTPNGEVGAMDLTQLQKEKQDLEQQLLEKNKTIKQMQQRMLELRKTLQKELKIRPDNELFEVREKPGPEMANMAPSVTNNTDLTDAREINFEYLKHVVLKFMSCRESEAFHLIKAVSVLLNFSQEEENMLKETLEYKMSWFGSKPAPKGSIRPSISNPRIPWS
B4: arfaptin-2, endogenous (protein, UniProt P53365 1-341)
chain: MTDGILGKAATMEIPIHGNGEARQLPEDDGLEQDLQQVMVSGPNLNETSIVSGGYGGSGDGLIPTGSGRHPSHSTTPSGPGDEVARGIAGEKFDIVKKWGINTYKCTKQLLSERFGRGSRTVDLELELQIELLRETKRKYESVLQLGRALTAHLYSLLQTQHALGDAFADLSQKSPELQEEFGYNAETQKLLCKNGETLLGAVNFFVSSINTLVTKTMEDTLMTVKQYEAARLEYDAYRTDLEELSLGPRDAGTRGRLESAQATFQAHRDKYEKLRGDVAIKLKFLEENKIKVMHKQLLLFHNAVSAYFAGNQKQLEQTLQQFNIKLRPPGAEKPSWLEEQ
B5: arfaptin-1b (Arf-interacting protein 1b, long isoform), endogenous (natural protein, human (endogenous in HeLa), UniProt P53367 1-373, looked up)
chain: B1 chain
notes: arfaptin-1b, long isoform of arfaptin-1 with an insertion (residues 69-100) absent from arfaptin-1a; source: endogenous, HeLa lysate
B6: arfaptin-1a (Arf-interacting protein 1, short isoform), endogenous (natural protein, human (endogenous in HeLa), UniProt P53367-2 1-341, looked up)
chain: MAQESPKNSAAEIPVTSNGEVDDSREHSFNRDLKHSLPSGLGLSETQITSHGFDNTKEGVIEAGAFQGGQRTQTKSGPVILADEIKNPAMEKLELVRKWSLNTYKCTRQIISEKLGRGSRTVDLELEAQIDILRDNKKKYENILKLAQTLSTQLFQMVHTQRQLGDAFADLSLKSLELHEEFGYNADTQKLLAKNGETLLGAINFFIASVNTLVNKTIEDTLMTVKQYESARIEYDAYRTDLEELNLGPRDANTLPKIEQSQHLFQAHKEKYDKMRNDVSVKLKFLEENKVKVLHNQLVLFHNAIAAYFAGNQKQLEQTLKQFHIKLKTPGVDAPSWLEEQ
notes: arfaptin-1a, short isoform of arfaptin-1; lacks the insertion (residues 69-100) of arfaptin-1b; also called arfaptin-1a (short form); source: endogenous, HeLa lysate
B7: arfaptin-1b-L23 (residues 143-373), GAL4-activation domain fusion (domain or fragment, UniProt P53367 143-373)
chain: ISEKLGRGSRTVDLELEAQIDILRDNKKKYENILKLAQTLSTQLFQMVHTQRQLGDAFADLSLKSLELHEEFGYNADTQKLLAKNGETLLGAINFFIASVNTLVNKTIEDTLMTVKQYESARIEYDAYRTDLEELNLGPRDANTLPKIEQSQHLFQAHKEKYDKMRNDVSVKLKFLEENKVKVLHNQLVLFHNAIAAYFAGNQKQLEQTLKQFHIKLKTPGVDAPSWLEEQ
B8: arfaptin-1a-S1 (residues 1-116), GAL4-activation domain fusion (domain or fragment, UniProt P53367-2 1-116)
chain: MAQESPKNSAAEIPVTSNGEVDDSREHSFNRDLKHSLPSGLGLSETQITSHGFDNTKEGVIEAGAFQGGQRTQTKSGPVILADEIKNPAMEKLELVRKWSLNTYKCTRQIISEKLG
B9: GAL4-activation domain fusion of arfaptin-1b (protein, UniProt P53367 1-373)
chain: B1 chain
B10: arfaptin-1b-L1 (residues 1-148), GAL4-activation domain fusion (domain or fragment, UniProt P53367 1-148)
chain: MAQESPKNSAAEIPVTSNGEVDDSREHSFNRDLKHSLPSGLGLSETQITSHGFDNTKEGVIEAGAFQGSPAPPLPSVMSPSRVAASRLAQQGSDLIVPAGGQRTQTKSGPVILADEIKNPAMEKLELVRKWSLNTYKCTRQIISEKLG
B11: GAL4-activation domain fusion of arfaptin-1a (protein, UniProt P53367-2 1-341)
chain: B6 chain

Numbering of substitutions follows the chain as printed. Numbers in names are those of the source. Results are given in words; binding and its absence hold for the method and conditions named. For part of these data: In cells and extracts the contact can be indirect. Some results given as binding are weak or reduced against the parent protein; the word gives no strength. Tags and fused reporters may be left off the sequences shown.

The target in one assay is T1, GST-Arl1QL (Arf-like protein 1, Gln71 to Leu, putative active GTP-bound form) (human). The assay is described as follows: pull-down; GST-Arl1QL immobilized on glutathione-sepharose, exchanged for GTPγS; precleared lysates of transfected HeLa cells (2.5 mg per 5 μg GST fusion) in NS buffer (20 mM HEPES pH 7.5, 100 mM NaCl, 5 mM MgCl2, 1 mM DTT), 4°C overnight; western blot with anti-myc; only the target purified.
For the molecule B1, the binding result is listed as “binds”.
B2: the binding result was “no binding”.

A further assay has the same target. The assay is described as follows: pull-down; GST fusion proteins (5 μg) immobilized on glutathione-sepharose, incubated with GTPγS (QL) or GDP (TN); HeLa lysates (2.5 mg), endogenous proteins; 12.5% SDS-PAGE and western blotting; only the target purified. For orientation: Immunoblotting shows a protein as a band on a membrane.
Turning to “golgin-245, endogenous (from UniProt Q13439 1-2230)”, the binding entry is “binds”.
For B3, the binding entry is reported as “binds”.
B4: the binding entry is “binds”.
As for B5, the binding result is “binds”.
For the molecule B6, the binding entry was “binds”.

A further assay deals with T2, LexA DNA-binding domain fusion of Arl1QL (human). The assay is described as follows: two-hybrid; small GTPase fused to the LexA DNA-binding domain, arfaptin-1 constructs fused to the GAL4-activation domain, co-transformed into yeast strain L40; colonies screened for histidine auxotrophy.
On to B7, for which the binding entry is listed as “binds”.
On to B8, for which the binding result is “no binding”.
On the same count and under the same terms, in the case of B9 it was “binds”; in that of B10, “no binding”; in that of B11, “binds”.
